Data published in PubChem BioAssay (Tox21).
Results filed as inconclusive are left out. Calls come from the whole dose curve; as a rule, active = well fitted curve in the direction sought with a large enough effect in the repeat runs; inconclusive = weak or mixed curves; inactive = no such curve, though single readings can be large; an effect the other way counts as inactive or inconclusive. Some structures have more than one record in an assay (separate samples or runs), and their calls can disagree. For part of its entries the source gives two or more results. They are shown here; other results are not. There may be further records. Values given together repeat one measurement (runs, samples, wells, individuals or studies). Records carry a tag for their origin. Letters hold for one entry only.

Assays:
[1] = qHTS assay to identify small molecule antagonists of the thyroid receptor (TR) signaling pathway (AID 743065); note: nearly all actives have a fitted effect of over 55% in size
Method in brief: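 GH3.TRE-Luc rat pituitary cells carrying two TR response elements driving luciferase were plated for 4 h, given compound plus 1 nM T3 (final), and incubated 23.5 h at 37 C. ONE-Glo luminescence measured reporter inhibition; CellTiter-Fluor fluorescence tracked cytotoxicity.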

[2] = A CellTox Green Cytotoxicity Assay to monitor cytotoxicity in HEK293 cells - 24 hour (AID 1224875); note: nearly all actives have a fitted effect of over 45% in size
Method in brief: (§1)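 Each value comes from one timepoint of a single continuous run in which HEK293 cells with CellTox Green were exposed to compound for up to 40 h at 37 C, dye fluorescence rising with cell death.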

[3] = A CellTox Green Cytotoxicity Assay to monitor cytotoxicity in HEK293 cells - 16 hour (AID 1224888); note: nearly all actives have a fitted effect of over 35% in size
Method in brief: as §1
Potency is the fitted concentration of half-maximal effect.

Row | SMILES | Potency [1] | Potency [2] | Potency [3]
1 | Cc1ccc(C(C)C)c(O)c1 | inactive [sample A] and active: 54.5 µM [sample B] |  | 
2 | CCCCCCCCCCO |  | active: 24.6 µM [sample A] and inactive [sample B] | active: 43.8 µM [sample A] and inactive [sample B]
